Data from the RNAGym collection of RNA variant scans (doi:10.7554/elife.90254).
The source gives no read counts; variants with many changes may rest on few reads.

B1: LINE1-full (parent)
chain: UACGUAGGUGGUUUUCCCCUGAUAGUGCUAAGGGGGCCUGGAAGUUUGGACUGGGCAGAGCUCAACACAGCGUGGCAAAGUGGCUGUGGCUAGACUGCCUCUCUGGAUUCCUCGUCACUCAGCAGGGCAUCUCUGAGAGAAAUGCC

Variants of: B1
Test: self-cleavage, relative activity (ratio to wild type); higher = more cleavage; in vitro, sequencing; the parent is a self-cleaving ribozyme

Variant | self-cleavage
UACGUGGGUGGUUUUCCCCUGAUAGAGCUAAGGGGGCCUGGAAGUUUGGACUGGGCAGAGCUCAACACAGCGUGGCAAAGUGGCAGUGGCUAGACUGCCUCUCUGGGUUCCUCGUCACUCAGCAGGGCAUCUCUGAGGGAAAUGCC [A6G U26A U85A A107G A138G] | 1.04
UACGUAGGUGGGUUUCCCCUGAUAGUGCUAAGGGGGCCUGGAAGUUUGGACUGAGCAGAGCUCAACACAGCGUGGCAAAGUGGCUGUGGCUUGACUGCCUCUCUGGAUUCCUCGUCACUCAGCAGGGCAUCUCUGAGAGAAAUGCC [U12G G54A A92U] | 0.4
UACGUAGGUGGUUUUCCCCUGAUAGUGCUAAGGGGGCCUGGAAGUUUGGACUGGGCAGAGCUCAACACAGCGUGGCAAAGUGGCUGCGGCUAGACUGCCUCUCUGGAUUCCUCGUCACUCAGCAGGGCACCCCUGAGAGAAAUGCC [U87C U130C U132C] | 0.35
UUCGUAGGUGGUUUUCCCCUGAUAGUGCUAAGGGGGCCUGGAAGUUUGGACUGGGCAGAGCUCAACACAGCGUGGCAAAGUGGCAGUGGCAAGACUGCCUCUCUGGAUUCCUCGUCACUCAGCAGGGCAUCUCCGAGAGAAAUGCC [A2U U85A U91A U134C] | 0.13
UACGUAGGUGGGUUUCCCCUGAUAGUGCUAAGGGGGCUUGGAAGUUUGGACUGGGCAGAGCUCAACACAGCGUGGCAAAGUGGCUGUGGCUAGACUGCCUCUCUGGAUUCCUCGUCACUCAGCAGGGCAUCCCUGAGAGAAAUGCC [U12G C38U U132C] | 1.07
UACGUAGGUGGUUUUCCCCUGAUAGUGCUAAGGGGGCCUGGAAGUUUGGACCGGGCAGAGCCCAACACAGCGUGGCAAAGUGGCUGCGGCUAGACUGCCUCUCUGGAUUCCUCGUCACUCAGCAGGGCAUCUCUGAGAGAAAUGCC [U52C U62C U87C] | 0
UACGUAGGUGGUUUUCCCCUGAUAGUGCUAAGGGGGCCUGGAAGUUUGGACUGGGCAGAGCUCAACACAGCGUGGCAAAGCGGCUGUGGCUAGACUGCCUCUCUGGAUUCCUCGACACUCAGCAGGGCAUCUCUAAGAGAAAUGCC [U81C U115A G135A] | 0.21
UACGUAGGUGGUUUUCCCCUGAUAGUGCUAAGGGGGCCUGGAAGUUUGGACUGGGCAGAGCUCAACACAGCGUGGCAAGGUGGCUGUGGCUAGACAGCCUCUCUGGAUUCCUCGUCACUCAGCAGGGCAUCCCUGAGAGAAAUGCC [A79G U96A U132C] | 0.04
UACGUAGGUGGUUUUCCCCUGAUAGUGCUAAGGGGGCCUGGAAGUUUGGACUGGGCAGAGCUCAACACAGCGUGGCAAAGUGGCUGUGGCUAGACUGCCUCUCUGGACUCCUCGUCACUCAGCAGGGCAUCUCUGGGAGAAACGCC [U108C A136G U143C] | 2.51
UACGUAGGUGGUUUUCCCCUGAUAGUGCUAAGGGGGCCUGGAAGUUUGGACUGGGCAGAGCUCAACACAGCGUGGCAGAGUGGCUGUGGCUAGCCUGCCUCUCUGGAAUCCUCGUCACUCAGCAGGGCACCUCUGAGAGAAAUGCC [A78G A94C U108A U130C] | 0
UACGUAGGUGGUUUUCCCCUGAUAGUGCUAAAGGGGCCUGGAAGUUAGGACUGGGCAGAGCUCAACACAGCGUGGCAAAGUGGCUGUGGCUAGACUGCCUCUCUGGAUUCCUCGUCACUCAGCAGGGCAUCUCUGAGAGAAGUGCC [G32A U47A A142G] | 1.01
UACGUAGGUGGUUUUCCCCUGAUAGUGCUAAGGGGGCCUGGAAGUUUGGACUGGGCAGAGCUCAACACAGCGUGGCAAAGUGGCUGUGGCUAGACUGCCUCUCUGAAUUACACGUCACUCAGCAGGGCAUCUCUGAGAGAAAUGCC [G106A C110A U112A] | 1.01
UACGUAGGUGGUUUCCCCCUGAUAGUGCUAAGGGGGCCUGGAAGUUUGGACUGGGCAGAGCUCAACACAGCGUGGCAAAGUGGCUGUGGCUAGACUGCCUCUCUGGAUUCCACGUCACUCAGCAGGGCAUCUCUGGGAGAAAUGCC [U15C U112A A136G] | 1.72
UACGUAGGUGGUUUUCCCCUGAUAGUGCUAAGGGGGCCUGGAAGUUUGGACUGGGCAGAGCUCAACACAGCGCGGCAAAGUGGCUGUGGCUAGACUGCCUCUCUGGAUUCCUCGUCACUCAGCAGGGCAUCUCUGUGAGAGAUGCC [U73C A136U A141G] | 2.03
UACGUAGGUGGUUUUCCCCUGAUAGUGCUAAGGGGGCCUGGAAGUUUGGACUGGGCAGAGCUCAACACAGCGGGGCAAAGUGGCUGUGGCUAGACUGCCUCCCUGGAUUCCUCUUCACUCAGCAGGGCAUCUCUGAGAGAAAUGCC [U73G U102C G114U] | 1.63
UACGUAGGUGGUCUUCCCCUGAUAGUGCUAAGGGGGCCUGGAAGUUUGGACUGGGCAGAGCUCAACACAGCGUGGCAAAGUGGCUGUGGCUAGACUGCCUCCCUGGAUUCCUCGCCACUCAGCAGGGCAUCACUGAGAGAAAUGCC [U13C U102C U115C U132A] | 0
UACGCAGGUGGUUUUCCCCAGAUAGUGCUAAGGGGGCCCGGAAGUUUGGACUGGGCAGAGCUCAACACAGCGUGGCAAAGUGGCUUUGGCUAGACCGCCUCUCUGGAUUCCUCGUCGCUCAGCAGGGCAUCUCUGAGAGAAAUGCC [U5C U20A U39C G86U U96C A117G] | 0.66
UACGUAGGUGGUUUUCCCCUGAUAGUGCUAAGGGGGCCUGGAGGUUUGGACUGGGCAGAGCUCAACACAGCGUGGCAAUGCGGCAGUGGCUAGACUGCCUCUCUGGGUUCCUCGUCACUCAGCAGGGCAUCUCUGAGAGAAAUGCC [A43G A79U U81C U85A A107G] | 0
UACGUAGGUGGUUUUCCCCUGAUAGUGCUAAGGGGGCCUGGAAGUUUGGACUGGGCAGGGCUCAUCACAGCGUGGCAAUGUGGCAGUGGCUAGACUGCCUCUCUGGAUUCCUCGUCACUCAGCAGGGCACCUCUGAGAGAAAUGCC [A59G A65U A79U U85A U130C] | 0
UACGUAAGUGGUUUUCCCCUGAUAGUGCUAAGGGGGCCUGGAAGUUUGGACUGGGCAGAGCUCAACACAGCGUGGCAAAGUGGCUGCGGCUAGACUGCCUCUCUGGAUUCCUCGUCACACAGCUGGGCACCUCUGAGAGAAAUGCC [G7A U87C U119A A124U U130C] | 0.3

Variant | self-cleavage
UACGUAGGUGGUUUUCCCCCGAUAGCGCUAAGGGGGCCUGGAAAUUUGGACUGGGCAGAGCUCAACACAGCGUGGCAAAGCGGCUGUGGCUAGACUGCCUCUCUGGAUUCCUCGUCACUCAGCAGGGCAUCUCUGAGAGAAAUGCC [U20C U26C G44A U81C] | 0.17
UACGUAGGUGGUUUUCCCCUGAUAGUGCUAAGGGGGCCUGGAAGUUUGGACUGGGCAGAGCUCAACACAGCGUGGCAAAGAGGCUGUGACUAGACUGCCUCUCAGGAUUCCCCGUCACUCAGCAGGGCAUCUCUGAGAGAAAUGCC [U81A G89A U104A U112C] | 0.03
UACGUAGGUGGUUUUCCCCUGAUAGUGCUAAGGGGGCCUGGAAGUCUGGACUGGGCAGAGCUCAACACAGCGUGGCAAAGUGGCUGUGGCUAGACUGCCUCUCUGGAUUCCCCGUCACUCAGCAGGGCAUCUCUGGGAGGAAUGCC [U46C U112C A136G A140G] | 1.22
AACGUAGGUGGUUUUCCCCUGGUAGUGCUAAGGGGGCCUGGAAGUUUGGGCUGGGCAGAGCUCUAAACAGCGUGGCAAAGUGGCUGUGGCUAGACUGCCUCUCUGGAUUCCUCGUCACUCAGCAGGGCAUCUCUGAGAGAAAUGCC [U1A A22G A50G A64U C66A] | 0.46
UACGUAGGUGGUUUUCCCCUGAUAGUGCUAAGGGGGCCUGGAAGUUUGGACUGGGCAGAGCUCAACACAGCGCGGCAAAGUGGCUGUGGCUAGACUGCCUCUCUGGAUUCCUCGUCACUCAGCGGGGCAUCUCCGAGAGAAAUGCC [U73C A124G U134C] | 1.44
CACGUAGGUGGUUUUCCCCUGAUAGUGCUAAGGGGGCCUGGAAGUUUGGACUGGGCAGAGCUCAACACAGCGUGGCAAAGUGGCUGUGGCUGGACUGCCUCCCUGGAUUCCUCGUCACUCAGCAGGGCAUCUCUGAGAGAAAUGCC [U1C A92G U102C] | 0.18
UACGUUGGUGGUCUUCCCCUGAUAGUGCUAAGGGGGCCUGGAAGUUUGGACUGGGCAGAGCUCUACACAGCGCGGCAAAGUGGCUGUGGCUAGACUGCCUCUCUGGAUUCCUCGUCACUCAGCAGGGCAUCUCUGAGAGAAAUGCC [A6U U13C A64U U73C] | 0.56
UACGUAGGUGGUUUUCCCCUGAUAGUGCUAAGGGGGCCUAGAAGUUUGGACAGGGCAGAGCUCAACACAGCGUGGCAUAGUGGCUGUGGCUAGACUGCCUCUCUGGAUUCCCCGUCACUCAGCAGGGCAUCUCUGAGAGAAAUGCC [G40A U52A A78U U112C] | 2.29
UACGUAGGUGGCUUUCCCCUGAAAGUGCUAAGGGGGCCUGGAGGUUUGGACUGGGCAGAGCUCAACACAGCGUGGCAAAGUGGCUGUGGCUAGACUGCCUCUCUGGAUUCCUCGUCACUCAGCAGGGCAUCUCUGAGAGAAAUGCC [U12C U23A A43G] | 1.06
UACGUAGGUGGUUUCCCCCUGAUAGUGCUAAGGGGGCCUGGAAGUUUGGACUGGGCAGAGCUCAACACAGCGUGGCAAAGUGGCUGUGGCUAGAUUGCCUCUCUGGAUUCCCCGUCUCUCAGCAGGGCAUCUCUGAGAGAAAUGCC [U15C C95U U112C A117U] | 0.2
UACGUAGGUGGUUUUCCCCUGAUAGUGCUAAGGGGGCCUGGAAGUUUGGACUGGGCAGAGCUCAACACAGCGUGGCAAAGUGGCUGUGGCUAGACUGCCCCUCUGAAUUCCACGUCACUCAGCAGGGCAUCUCUGAGAGAAAUGCC [U100C G106A U112A] | 1.93
UACGUAGGUGGUUUUCCCCUGAUAGUGCUAAGGGGGCCUGGAAGUUUGGACUGGGCAGAGCUUAACACAGCGUGGCAAAGUGGCUGUGGCUAGACUGCCUCUCUGGAUUCCCCGUCACUCAGCAGGGCAUCUCUGUGAGGAAUGCC [C63U U112C A136U A140G] | 0.4
CACGUAGGUGGUUUUCCCCUGAUAGUGCUAAGGGGGCCUGGAAGCUCGGACUGGGCAGAGCUCAACACAGCGUGGCAAAGUGGCUGUGGCUAGACUGCCUCUCUGGAUUCCUCGUCACUCAGCAGGGCAUCUCUGAGAGAAAUGCC [U1C U45C U47C] | 2.19
UACGUAGGUGGUUUUCCCCUGAUAGUGCUAAGGGGGCCUGGAAGUUUGGACUGGGCAGAGCUCAACACAGCGUGGCAGAGUGGCUGUGGCUAGACUGCCUCUCUGGAUUCCUCGUCACUCAGCAAGGCAGCUCUGAGAGAAAUGCC [A78G G125A U130G] | 1.59
UACGUAGGUGGUUUUCCCCUGAUAGUGCUAAGGGGGCCUGGAAGUUUGGGCUGGGCAGAGCUCAACACAGCGUGGCAAAGUGGCUGUGGCUAGACUGCCUCUCUGGAUUCCUCGUCACUCAGCAGGGCACCUCUGAGAGAGAUGCC [A50G U130C A141G] | 1.49
UACGUAGGUGGUUUUCCCCUGAUAGUGCUAAGGGGGCCUGGAAGUUUGGACUGGGCAGAGCUCAACACAGCGUGGCAAGGAGGCUGUGGCUAGACUGCCUCACUGGUUUCCUCGUCACUCAGCAGGGCAUCUCUGAGAGAAAUGCC [A79G U81A U102A A107U] | 2.7
UACGUAGGUGGUUUUCCCCUGAUAGUGCUAUGGGGGCCUGGAAGUUUGGACUGGGCAGAGCUCAACACAGCGCGGCAAAGUGGCUGUGGCUAGACUGCCUCUCUGGAUUCCUCGUCACUCAGCAGGGCAUCUCUGAGAGAAGUGCC [A31U U73C A142G] | 1.53
UACGUAGGUGGUUUUCCCCUGAUAGUGCUAAGGGGGCCUGGAAGUUUGGACUGGGCAAAGCUCAACACAGCGUGGCAAAGUGGCUGUGGCUAGACUGCCCCUCCGGAUUCCUCGUCACUCAGCAGGGCAUCUCUGAGGGAAAUGCC [G58A U100C U104C A138G] | 0.18
UACAUAGGUGGUAUUCCCCUGAUAGUGCUAAGGGGGCCUGGAAGUUUGGACUGGGCAGAGCUCAACACAGCGUGGCAAAGUGGCUGUGGCUAGACUGCCUCUCUGGAUUCCUCGUCACUCAGCUGGGCAUCUCUGAGAGAAAUGCC [G4A U13A A124U] | 0.15
